In all, about 360,000 compounds went through this assay and about 7,500 (2.1%) were called active. Roughly 8% stayed inconclusive and do not appear here. The call rests on the fitted dose curve; in most records, active means well fitted cell-killing curve with a large enough effect; inconclusive means small, poorly fitted or top-dose-only effect, or effect the other way, or another doubt; inactive means no such curve, though single readings can be large or run the other way. The entries are a selection whose mix differs from that of the whole data set.
Experiment: qHTS for induction of synthetic lethality in tumor cells producing 2HG: qHTS for the HT-1080-IDH1KD cell line
Settings: HT-1080 IDH1 knockdown viability, ATP luminescence, 48 h; series mostly up to 46.1 µM; activity, negative = toxicity: at the top concentration
Description: Unbiased genomic sequencing for 22 glioma genomes found recurrent mutation of IDH1 on chromosome 2q33, a gene encoding the cytosolic isoform of IIDH1 associated with the tri-carboxylic acid cycle (TCA) that catalyzes the oxidative decarboxylation of isocitrate, yielding alpha-ketoglutarate and CO2 via NADP+ to NADPH conversion. Subsequent studies confirmed the recurrent IDH mutations in up to 70% of secondary gliomas and in 10% of AML cases. In addition, the somatic mutation of cancer-associated IDH1 is a point mutation resulting in various amino-acid substituents at Arginine132 (IDH1 R132), a key residue found in the enzyme's active site that when mutated, results in the loss-of-function in metabolizing isocitrate but confers a gain-of-function to produce the oncometabolite 2-hydroxyglutarate (2HG). This in effect defines IDH1 as an oncogene and provides an extraordinary opportunity to discover chemical probes against mutant IDH1 that may translate into much needed new therapies for glioma and AML patients.
This assay aims to perform a synthetic-lethal screen for chemical probes specific for 2HG-producing tumor cells using matched paired cell lines (1) HT-1080-NT fibrosarcoma cell line that overproduces 2HG and (2) HT-1080-IDH1KD cell line which has IDH1 expression knocked-down. Desirable compounds are toxic to the NT fibrosarcoma cell line but not to the IDH1KD cell line. The data in this AID corresponds to the results of the qHTS against the HT-1080 IDH1KD cell line.
[1] Dang L, Jin S, Su SM. IDH mutations in glioma and acute myeloid leukemia. Trends of Mol Med. 2010; 16(9): 387-97.
[2] Dang L et al. Cancer-associated IDH1 mutations produce 2-hydroxyglutarate. Nature. 2010; 465(7300):966.
Molecular Libraries Probe Production Centers Network [MLPCN]
NIH Chemical Genomics Center [NCGC]
Assay Submitter (PI): Lenny Dang Ph.D., Agios Pharmaceuticals
Suspensions of trypsinized HT-1080-IDH1KD cells were dispensed into white, tissue culture-treated, solid 1536-well plates at 5uL/well (750 cells/well final concentration) in RPMI medium supplemented with 5% FBS. Plates were incubated at 37 degrees C for 2 hours, after which 23 nL of compounds or DMSO were delivered to each well using a pin tool. Plates were then incubated at 37 degrees C for an additional 48 hours. CellTiter-Glo viability reagent (Promega) was dispensed into wells (2.5uL/well) and incubated at room temperature for 10 minutes. The plates were measured on a PerkinElmer ViewLux plate reader for luminescent signal (clear filter, 1 sec exp.). DMSO-treated control wells and media-only (no cells) control wells were used to normalize %Activity of identified toxic compounds; DMSO-treated wells corresponded to 0%Activity (100% viability), while media-only controls were used to normalize 100%Activity (0% viability). To minimize variability between cell lines, both HT-1080-NT and HT-1080-IDH1KD lines were dispensed and treated with identical compound series in single batches.
Concentration-response curves were fitted to the signals arising from the resulting luminescence. The concentration-effect curves were then classified based on curve quality (r2), response magnitude and degree of measured activity, and compounds were subsequently categorized based on their curve class.
In the case of `CN(C)CCC[C@]1(c2ccc(F)cc2)OCc2cc(C#N)ccc21`, the “activity, negative = toxicity” value is reported as inactive: -19.4%. With `O=C1NC[C@H](Cc2ccc(O)cc2)N(C[C@@H]2CCCN2C[C@H](Cc2ccccc2)N2C[C@H](Cc3ccccc3)N(CCc3ccccc3)C(=O)C2=O)C1=O` the “activity, negative = toxicity” value was inactive: 12.5%. For `CC(C)[C@H]1C(=O)Nc2ccccc2N1C(=O)N[C@@H](Cc1ccccc1)C(=O)N[C@H](Cc1ccccc1)C(=O)O`, the “activity, negative = toxicity” value was inactive: 10.5%. For `CNc1nc2cc([N+](=O)[O-])c([N+](=O)[O-])cc2nc1NC`, the Potency was active: 3.26 µM. With `CCOC(=O)/C(=N/Nc1ccc(Br)cc1)N1CC(C)OC(C)C1` (centres undefined) the “activity, negative = toxicity” value was inactive: -29.9%. For `O=C(CCCN1C(=O)/C(=C/c2ccccc2)SC1=S)Nc1ccc(O)cc1`, the “activity, negative = toxicity” value was inactive: -0.0866%. In the case of `Cc1ccc(C(=O)C[n+]2cc(-c3ccccc3)n3c2CCCCC3)cc1`, the “activity, negative = toxicity” value is reported as inactive: -29%. For `COc1cc2cc(C(=O)NC(C)c3cccc4ccccc34)c(N)nc2cc1OC` (centres undefined), the Potency was active: 18.4 µM. In the case of `Cc1ccc(C)c(N2CCN(C(=O)c3cccn4c(=O)c5sccc5nc34)CC2)c1`, the Potency is reported as active: 16.4 µM. In the case of `O=C(Nc1ccn([C@H]2CC[C@@H](CO)O2)c(=O)n1)c1ccccc1`, the “activity, negative = toxicity” value is reported as inactive: 2.96%. With `Cc1ccc(S(=O)(=O)N2[C@@H](c3cccc(Cl)c3)C(C(=O)O)=CC[C@H]2c2ccc(Cl)c(Cl)c2)cc1` the “activity, negative = toxicity” value was inactive: -25.3%. For `COc1ccc(/C=C2/SC(=O)N(CCC(=O)Nc3ccccc3)C2=O)cc1OC`, the “activity, negative = toxicity” value was inactive: -2.79%. In the case of `Cc1cccc(Nc2nnc(SC/C(O)=C(\C#N)c3nc4ccccc4[nH]3)s2)c1`, the “activity, negative = toxicity” value is reported as inactive: 1.88%. For `CC(C)c1ccc(O)c(NC(=S)NC(=O)c2ccc3c(c2)OCO3)c1`, the Potency was active: 14.6 µM. With `CN(C)CCCNc1nc2cc(-c3cccc(Cl)c3)sc2c(=O)n1C` the Potency was active: 16.4 µM. For `CC1(Oc2ccc3ccccc3c2)CCN(Cc2cccn2-c2nccs2)C1` (centres undefined), the Potency was active: 14.6 µM. In the case of `CCS(=O)(=O)Nc1ccc(C2=NN(C(C)=O)C(c3cccs3)C2)cc1` (centres undefined), the Potency is reported as active: 16.4 µM. In the case of `NS(=O)(=O)c1ccc(Nc2nc(-c3ccc(F)cc3)cs2)cc1`, the Potency is reported as active: 14.6 µM. With `CN1CCN(CCC=C2c3ccccc3Sc3ccc(S(=O)(=O)N(C)C)cc32)CC1` the “activity, negative = toxicity” value was inactive: 6.1%. For `COc1cc2nc(CN(C)Cc3nc4ccccc4c(=O)[nH]3)[nH]c(=O)c2cc1OC`, the Potency was active: 7.08 µM. For `CCCCOc1ccc(C(=O)C(CN2CCOCC2)c2ccccc2)cc1` (centres undefined), the Potency was active: 16.4 µM. For `Cc1cn([C@H]2C=C[C@@H](CO)O2)c(=O)[nH]c1=O`, the “activity, negative = toxicity” value was inactive: 0.549%. For `COc1cc([C@@H]2Oc3cc(C4Oc5cc(O)cc(O)c5C(=O)[C@H]4O)ccc3O[C@H]2CO)ccc1O` (some centres undefined), the “activity, negative = toxicity” value was inactive: -10.3%. With `Cc1ccc(S(=O)(=O)CCc2nnc(NC(=O)CCl)s2)cc1C` the Potency was active: 14.6 µM. For `CC(C(=O)Nc1ccccc1)c1ccc(-c2ccccc2)c(F)c1` (centres undefined), the Potency was active: 20.6 µM. In the case of `O=C(/C=C/c1ccco1)NC(=S)Nc1ccccc1O`, the “activity, negative = toxicity” value is reported as inactive: -30%. With `Cc1ccc(/C=C2\SC(=S)N(CCC(=O)NCCCN3CCOCC3)C2=O)cc1` the “activity, negative = toxicity” value was inactive: -12.9%. With `Cc1ccc([C@H]2C[C@@H](O)[C@H](n3cc(COC(=O)c4ccccc4)nn3)CN2Cc2cccs2)cc1` the “activity, negative = toxicity” value was inactive: -3.46%. With `Brc1ccc2[nH]c3nc(SCCN4CCOCC4)nnc3c2c1` the “activity, negative = toxicity” value was inactive: 0%. In the case of `COc1ccc(NC(=O)CCN2C(=O)C3C4C=CC(C4)C3C2=O)cc1` (centres undefined), the “activity, negative = toxicity” value is reported as inactive: -11.5%. With `Cc1noc(NS(=O)(=O)c2ccc(N/C=C/C(=O)c3ccc4c(c3)OCO4)cc2)c1C` the “activity, negative = toxicity” value was inactive: -23.4%. For `Cc1[nH]c2ccccc2c1/C=C/c1nc2ccccc2c(=O)[nH]1`, the Potency was active: 16.4 µM. In the case of `C=CC[C@@H](CC(=O)N[C@H](CO)Cc1ccccc1)C(=O)N[C@@H](COC(=O)[C@@H](CC=C)CC(=O)OC(C)(C)C)Cc1c[nH]c2ccccc12`, the “activity, negative = toxicity” value is reported as inactive: -8.79%. In the case of `Cc1ccc2nc(C(C)(C)C)c(Cc3cccc(F)c3)n2c1`, the Potency is reported as active: 23.1 µM. For `CCOC(=O)N1CC=C2C(C#N)=C(N)C(C#N)(C#N)[C@H](c3cccs3)[C@H]2C1`, the “activity, negative = toxicity” value was inactive: -20.9%. With `Cc1cccc(COCC(CC(C)C)N2CCN(C(=O)c3ccc(C(F)(F)F)cc3)CCC2=O)c1` (centres undefined) the “activity, negative = toxicity” value was inactive: -4.74%. With `COc1cc(Nc2ccccn2)cc(C(=O)Nc2cccc(C(F)(F)F)c2)c1` the “activity, negative = toxicity” value was inactive: -1.01%. For `COC(=O)/C(=C1\Oc2ccc(C(C)(C)C)cc2S1)C(F)(F)F`, the “activity, negative = toxicity” value was inactive: 11%. For `COCCCNC(=O)C(=O)Nc1ccc2c(c1)N(S(=O)(=O)c1cccs1)CCC2`, the Potency was active: 2.31 µM. For `CC(=O)OCC(=O)C1(O)CCC2C3CCC4=CC(=O)C=CC4(C)C3C(O)CC21C` (centres undefined), the “activity, negative = toxicity” value was inactive: 26.2%. With `COc1cc2c(c(OC)c1OC)-c1ccc(OC)c(=O)cc1C(NC(=O)c1ccccc1)CC2` (centres undefined) the Potency was active: 0.0206 µM. For `O=C1N[C@H](Cc2c[nH]c3ccccc23)COC(=O)[C@H](Cc2ccc(F)cc2)C/C=C\C[C@H]1CC(=O)N(CCO)Cc1ccccc1`, the “activity, negative = toxicity” value was inactive: -29.2%. With `C#CCN1C=C(C(=O)OCC)C(C)N(Cc2ccccc2I)S1(=O)=O` (centres undefined) the Potency was active: 20.6 µM. In the case of `CCN(CC)CCN1C(=O)Cn2c(C)c(C)c3cccc1c32`, the “activity, negative = toxicity” value is reported as inactive: 1.28%. In the case of `COc1ccc2c3c([nH]c2c1)C1CC2C(CC(O)C(OC)C2C(=O)O)CN1CC3` (centres undefined), the “activity, negative = toxicity” value is reported as inactive: -4.05%. For `Cc1cn(C2C=CC(CO)O2)c(=O)[nH]c1=O` (centres undefined), the “activity, negative = toxicity” value was inactive: 21.3%. With `CC(=O)n1cc([C@H]2C=C(C(=O)Nc3ccccc3)O[C@@H](OCCCCO)C2)c2ccccc21` the “activity, negative = toxicity” value was inactive: -1.57%. For `COc1ccc(-c2csc(N3C(=O)C4C5c6ccccc6C(c6ccccc65)[C@@H]4C3=O)n2)cc1` (some centres undefined), the “activity, negative = toxicity” value was inactive: 2.71%. In the case of `CC(=O)Nc1cc(-c2ccc(C(=O)NC3CC3)cc2)cn2c(-c3ccc(F)c(Cl)c3)cnc12`, the Potency is reported as active: 18.4 µM. In the case of `CCCc1ccc(OCC(O)CN2CCN(c3ccccc3)CC2)cc1` (centres undefined), the “activity, negative = toxicity” value is reported as inactive: -24.8%. For `Cc1ccsc1/C=N/NC(=O)c1cc(-c2ccncc2)nc2ccccc12`, the Potency was active: 0.92 µM. With `CCO[C@@H]1OC(C(=O)NC2CC2)=C[C@H](c2ccccc2)[C@H]1CCCO` the “activity, negative = toxicity” value was inactive: -5.53%. For `C=CC[C@@H](CC(=O)N[C@H](CO)Cc1ccccc1)C(=O)NC[C@H](OC(=O)[C@@H](CC=C)Cc1ccc(F)cc1)c1ccccc1`, the “activity, negative = toxicity” value was inactive: -9.09%. In the case of `O=C(Nc1nnc([C@@H]2C[C@H](O)[C@@H](CO)O2)s1)c1cccc(Cl)c1`, the “activity, negative = toxicity” value is reported as inactive: 17.5%. In the case of `CC1(C)O[C@@H]2CC3C4C[C@H](F)C5=CC(=O)C=CC5(C)C4C(O)CC3(C)[C@]2(C(=O)CO)O1` (some centres undefined), the “activity, negative = toxicity” value is reported as inactive: 18.9%. In the case of `Cc1ccc2c(c1)c1c3n2CCNC3CCC1` (centres undefined), the “activity, negative = toxicity” value is reported as inactive: -7.74%. For `O=[N+]([O-])C(/C=C(\Cl)[N+](=O)[O-])=C(N1CCCCC1)N1CCCCC1`, the “activity, negative = toxicity” value was inactive: -4.86%. For `CCO[C@@H]1OC(C(=O)Nc2ccccc2)=C[C@H](c2csc3ccccc23)[C@H]1CCCO`, the “activity, negative = toxicity” value was inactive: -4.9%. For `O=C1N[C@@H](c2ccccc2)COC(=O)[C@@H](Cc2ccc(F)cc2)C/C=C\C[C@@H]1CC(=O)N(CCO)Cc1ccccc1`, the “activity, negative = toxicity” value was inactive: -2.59%.

From PubChem BioAssay AID686971 (National Center for Advancing Translational Sciences (NCATS), 2013)
Potency means the concentration at half of the fitted maximal effect.
